# ± gives the standard deviation. The list shows a part of the results, in another mix than the full data.
# Test system: MIWI (PIWIL1) piRISC loaded with L1MC piRNA (30 nt)
# Test: pre-steady-state target cleavage rate (min^-1); MIWI and MILI are mouse PIWI proteins and EfPiwi is from a freshwater sponge; tags in brackets are library labels; higher = faster piRNA-guided slicing of the target
# Details: guide: L1MC piRNA 5'p-UAACUAAAUACUAUGCAAGCUGUAGGUCCU
# Procedure, shortened: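 In this Cleave-'n-Seq assay, uncleaved targets were sequenced and normalised to depth and to weakly complementary targets. They came from a transcribed, DNA-blocked target RNA library […] mixed with 1 nM active affinity-purified piRISC carrying one synthetic guide, with or without 500 nM GTSF1 partner protein, in HEPES–potassium acetate buffer at 33 °C for 0–8 or 0–960 min. After three trials were pooled and k3 was capped at 0.0001 min^-1, the pre-steady-state cleavage rate was obtained from a burst-and-steady-state fit.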
# [1] = auxiliary factor: 500 nM mouse GTSF1
# [2] = auxiliary factor: none (no GTSF1)
# 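Further: 1 nM active piRISC with 0.1 nM target library at 33 °C single turnover.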
Sequence,pre-steady-state target cleavage rate [1],pre-steady-state target cleavage rate [2]
UCCACCUACAGGUUGCAUAGUUUUUAGUUA,0.305 ± 0.037,0.0132 ± 0.0026
UCCUCCAACAGCUUGCAUAGUUUUUAGUUA,0.366 ± 0.024,0.0393 ± 0.0083
AGGACCGUACAGCUUGCAUAGUAUUUAGUUA,1.16 ± 0.061,0.0943 ± 0.019
UGGACCUACAGCUUGCUUAGUAUUUAGUAA,1.03 ± 0.073,0.0335 ± 0.0097
UCCUCCUACAGCUUGCAUAGUAAUUAGAUA,0.297 ± 0.047,0.00556 ± 0.0028
AGGACCUACAGCAUGCAUAGUUUUUAGUUA,0.402 ± 0.026,0.0219 ± 0.0042
UCCUGCUAAGCUUGCAUAGUAUUUAGUUA,0.442 ± 0.042,0.0247 ± 0.0051
UCCUGCUACAGCUUACAUAGUAUUUAGUUA,0.619 ± 0.04,0.0211 ± 0.0026
UCCUGGAUGUGCUUGCAUAGUAUUUACGUUA,0.277 ± 0.026,0.037 ± 0.012
UCCUGGUACAGUUGCAUAGUAUUUAGUUA,0.487 ± 0.037,0.00874 ± 0.0034
UCCUGGAACAGCUUGCAUAGUAUAAAGUUA,0.359 ± 0.039,0.0115 ± 0.0046
UCCUGGAACAGCUUGCAUAGUAAUUAGAUA,0.32 ± 0.049,0.00963 ± 0.0031
UCCUGCUCACAGCUUGCAUAGUAUUUAGUUA,1.37 ± 0.076,0.0748 ± 0.014
UCCUGCUAUCAGCUUGCAUAGUAUUUAGUUA,1.04 ± 0.046,0.0859 ± 0.018
UCGACCUACAGCUUGCAUAGUAUUUAGAUA,0.564 ± 0.043,0.0299 ± 0.0074
UCCUCCUACAGCUUGCAAAGUAUUUAGAAA,0.267 ± 0.037,0.00288 ± 0.0024
AGGACCUACAGCUUGCAUAGAAUUUAGAUA,0.361 ± 0.046,0.0108 ± 0.0045
UCCUGGAUGUGCUUGCAUACUAUAUAGUUA,0.00748 ± 0.0044,0.00305 ± 0.0026
UGGACCUACAGCUUGCAUAGUUUUUAGAAA,0.165 ± 0.028,0.00934 ± 0.0035
UCCUGGUACAGCUUGCAUAGUAUUUAGUUC [g2:g24:cont:t1C],0.873 ± 0.047,0.0637 ± 0.014

Sequence,pre-steady-state target cleavage rate [1],pre-steady-state target cleavage rate [2]
AGGACGUACAGCUUGCAUAGAAUUUAGUUA,0.279 ± 0.014,0.0225 ± 0.007
UCCUCCUACAGCUUGCAUACUAUUUAGAAA,0.242 ± 0.043,0.00395 ± 0.0025
UCGACCUACAGCUUGCAUAGUAUUUAGUAA,1.15 ± 0.061,0.0683 ± 0.014
AGGACCUACAGCUUGCAUACUAUUUAGUAA,0.233 ± 0.029,0.018 ± 0.004
AGGACCUUGUGCUUGCAUAGUAUUUAGAAA,0.176 ± 0.024,0.00889 ± 0.0024
UCCUGGAUGUCCUUGCGUAGUAUUUAGUUA,0.0144 ± 0.0036,0.00687 ± 0.0021
AGGACCUACAGCUUGCAUAGUAUAAUGUAA,0.343 ± 0.064,0.00382 ± 0.0035
UCCACCUACAGCUUGCAUAGUAUUUAGUCUA,0.192 ± 0.035,0.0104 ± 0.0034
UCCUGCUUGUGCUUGCAUAGUAUUUAGAAA,0.0867 ± 0.017,0.00326 ± 0.0021
UCCUGCUACACCUUGCAUACUAUUUAGUUA,0.267 ± 0.05,0.0197 ± 0.0059
ACGACCUACAGCUUGCUUAGUAUUUAGUUA,1.57 ± 0.074,0.0527 ± 0.013
UCCUGGAUGUGCUUGCAUAGUAUUUAGCUUA,0.18 ± 0.024,0.0247 ± 0.0067
UCCUGGAACAGGAUGCAUAGUAUUUAGUUA,0.568 ± 0.036,0.00379 ± 0.0025
UCCUGGUACAGCUUGCAUAGUAGUUUAGUUA,0.286 ± 0.026,0.00582 ± 0.0023
UCCUGGAUGUGCUUGCAUAGUACUUAGUUA,0.17 ± 0.019,0.0283 ± 0.0074
UCCUCCUACAGCUUGGCAUAGUAUUUAGUUA,0.831 ± 0.11,0.0114 ± 0.0021
UCCUGCUACAGCUUGCAUAGUAAUUUAGUUA,0.169 ± 0.021,0.00511 ± 0.0023
UCCUGCUACAGCUUGCAUAGUUUUUAGAUA,0.164 ± 0.028,0.00613 ± 0.0022
UCCUGGUACAGCUUGCUAUGUAUUUAGUUA,0.0851 ± 0.01,0.00758 ± 0.0022
UCCUGGUUCAGCUUGCAUAGAAUUUAGUUA,0.147 ± 0.032,0.025 ± 0.0067

Sequence,pre-steady-state target cleavage rate [1],pre-steady-state target cleavage rate [2]
AGGACCUACAGCUUGCAUAGUAAUUAGUAA,0.587 ± 0.061,0.0377 ± 0.011
UCCUGCUACACCUUGCAUAGUUUUUAGUUA,0.172 ± 0.028,0.0199 ± 0.0073
UCCUGCUACAGCUUGCAUAGUAUAUAGUUA,0.433 ± 0.036,0.0162 ± 0.0032
UCCUGGUACAGCUUGGAUAGAAUUUAGUUA,0.212 ± 0.059,0.0109 ± 0.0034
UCCUGGAACAGCGUGCAUAGUAUUUAGUUA,1.29 ± 0.043,0.0415 ± 0.0072
UCCUGGAUCAGCUUGCAUAGUAUUAAGAAA,0.134 ± 0.025,0.00372 ± 0.0026
UCCUCCGACAGCUUGCAUAGUAUUUAGUUA,0.911 ± 0.03,0.0525 ± 0.0085
UCCUGGUACACGCUUGCAUAGUAUUUAGUUA,0.216 ± 0.046,0.028 ± 0.0062
UCCUGGAUGAGCUUGCAAAGUAAUUAGUUA,0.0947 ± 0.0094,0.00912 ± 0.0032
UCGACCUACAGCUUGCAUAGUAUUUAGUUU [g2:g28:cont:t1U],1.75 ± 0.067,0.158 ± 0.033
UCCACCUACAGCUUGCAUUGUAUUAAGUUA,0.363 ± 0.026,0.0078 ± 0.002
UGGACCUACAGCUUGGAAAGUAUUUAGUUA,1.03 ± 0.038,0.00647 ± 0.0024
UCCUGGUACGCUUGCAUAGUAUUUAGUUA,0.44 ± 0.056,0.0327 ± 0.0065
UCCUCCUACAGCUUGCAUAUAUUUAGUUA,0.395 ± 0.037,0.00226 ± 0.0021
UCCUGGAACAGCUUGCAUAGUUUAUAGUUA,0.0662 ± 0.011,0.0101 ± 0.003
AGGACCUACAGCUUGCAUUGUUUUUAGUUA,0.126 ± 0.015,0.011 ± 0.0021
UCGACCUAGAGCUUGCAUAGUAUUUAGUUA,1.07 ± 0.072,0.0649 ± 0.011
UCCACCUACUCCUUGCAUAGUAUUUAGUAA,0.38 ± 0.036,0.0152 ± 0.0026
UCCUGGAUCAGCUUGCUUAGUAAUUAGUUA,0.199 ± 0.022,0.0111 ± 0.004
AGGACCUACAGCUUGCAUACUAUAUAGUUA,0.31 ± 0.036,0.0173 ± 0.004
